Experimental data as given in PMC11829017, “Nucleotide-induced hyper-oligomerization inactivates transcription termination factor ρ” (Nature Communications, 2025).

B1: E. coli ρ G150D with a C-terminal octahistidine tag (enzyme)
chain: not shown
notes: transcription termination factor Rho (ρ), E. coli MG1655, connector substitution G150D; also called G150D•H8; G150D^F-ADP; source: E. coli BL21 (DE3), purified (HisTrap, heparin); for cryoEM E. coli RIL (BL21), with a final Superdex 200 step; not shown: His8 (H8), C-terminal, kept
B2: E. coli ρ with the sensor cysteines C84/C405 (X1), untagged (enzyme)
chain: not shown
modifications: cysteines crosslinked by BMOE (bismaleimidoethane) in the crosslinking assays and in the cryoEM sample
notes: also called WT^X1; ρ^X1; source: E. coli BL21 (DE3), purified (heparin, Sephacryl S-300)
B3: E. coli ρ S84C, untagged (enzyme)
chain: not shown
modifications: C84 crosslinked by BMOE
notes: transcription termination factor Rho (ρ), E. coli MG1655, S84C; also called S84C ρ; source: E. coli BL21 (DE3), purified (heparin, Sephacryl S-300)

How the values were obtained:
[1] = target: the molecule itself; assay: cryo-EM structure; ρ G150D•H8 or G152D•H8 (2.9 mg/ml) incubated with 2.2 mM ADP-BeF for 5 min at room temperature; helical filaments, ADP bound
[2] = target: the molecule itself; assay: cross-linking; BMOE (0.5 mM) crosslinking of 1 μM purified untagged ρ in PN23 buffer with ppGpp or pppGpp; LDS-PAGE

Protein	stoichiometry N [1]	stoichiometry N [2]
B1	> 18	–
B2	–	12
B3	–	12
